# Laboratory results from paper PMC4336329 (PLoS ONE, 2015).
# The whole screen tested about 310,000 compounds, of which about 2,200 (0.71%) showed an effect of 50% or more. Effects have a minus sign here. The list shows a part of the results.
# Target: human ether-à-go-go-related gene (hERG) potassium channel (human, UniProt Q12809)
# Assay: primary screen, population patch clamp on CHO cells stably expressing hERG
# Chain of human ether-à-go-go-related gene (hERG) potassium channel (Q12809 whole entry, looked up): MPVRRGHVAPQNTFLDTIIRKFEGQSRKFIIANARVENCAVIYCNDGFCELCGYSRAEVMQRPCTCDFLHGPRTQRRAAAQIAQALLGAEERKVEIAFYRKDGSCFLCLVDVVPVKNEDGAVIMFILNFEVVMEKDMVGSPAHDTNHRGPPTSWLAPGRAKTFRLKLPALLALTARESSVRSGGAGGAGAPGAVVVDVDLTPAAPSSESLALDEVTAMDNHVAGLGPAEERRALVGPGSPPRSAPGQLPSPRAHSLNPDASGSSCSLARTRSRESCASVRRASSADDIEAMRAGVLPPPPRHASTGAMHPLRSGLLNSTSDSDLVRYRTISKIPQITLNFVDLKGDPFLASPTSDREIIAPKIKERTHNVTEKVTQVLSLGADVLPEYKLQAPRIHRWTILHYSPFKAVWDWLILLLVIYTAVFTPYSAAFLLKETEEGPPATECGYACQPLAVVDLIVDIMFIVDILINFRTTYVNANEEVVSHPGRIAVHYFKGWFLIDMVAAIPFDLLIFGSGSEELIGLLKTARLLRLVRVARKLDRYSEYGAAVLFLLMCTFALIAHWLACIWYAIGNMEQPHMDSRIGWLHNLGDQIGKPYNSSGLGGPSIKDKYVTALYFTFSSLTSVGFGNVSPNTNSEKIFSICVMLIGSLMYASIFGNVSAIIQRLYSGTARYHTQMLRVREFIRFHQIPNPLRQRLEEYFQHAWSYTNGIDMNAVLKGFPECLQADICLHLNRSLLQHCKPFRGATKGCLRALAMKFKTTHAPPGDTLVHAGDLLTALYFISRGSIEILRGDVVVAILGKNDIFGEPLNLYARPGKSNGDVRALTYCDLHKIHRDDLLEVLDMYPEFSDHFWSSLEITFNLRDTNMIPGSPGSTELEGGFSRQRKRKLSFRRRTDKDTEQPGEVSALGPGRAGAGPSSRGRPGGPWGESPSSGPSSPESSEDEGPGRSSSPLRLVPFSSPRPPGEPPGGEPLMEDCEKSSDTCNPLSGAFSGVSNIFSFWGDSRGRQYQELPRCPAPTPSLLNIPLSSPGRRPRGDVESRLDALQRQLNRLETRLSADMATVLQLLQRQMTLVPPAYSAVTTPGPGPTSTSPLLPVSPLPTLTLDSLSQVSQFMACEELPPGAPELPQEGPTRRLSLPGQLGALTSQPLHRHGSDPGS
row,SMILES,"hERG current change (%, negative = inhibition) at 1uM [%]"
1,COc1cccc(NC(=S)N2CCN(C/C=C/c3ccccc3)CC2)c1,-9.7
2,CCOC(=O)N1CCC(NC(=O)c2ccc(OC)c(CN3CC(=O)N4CCCC4C3=O)c2)CC1 (stereo not drawn),11.4
3,COc1ccccc1OCCOCCOc1ccc(C)cc1Br,13.5
4,CCN(CC)c1ccc(C(=O)N2CCN(Cc3ccccc3)CC2)cc1,0.601
5,Cn1c(C(=O)O)c(S(=O)(=O)c2ccc(Cl)cc2)c2ccccc21,15.3
6,Cc1ccc(S(=O)(=O)N2CCOCC2)cc1C(=O)OCC(=O)NC1CCS(=O)(=O)C1 (stereo not drawn),13.8
7,CC(=O)Nc1ccc(OCC[n+]2cccc(C(N)=O)c2)cc1.[Br-],17.1
8,Cc1ccc(N(CC(=O)Nc2c(C)n(C)n(-c3ccccc3)c2=O)S(C)(=O)=O)c(C)c1,6.44
9,CC1=C(C(=O)OCc2cc(C)on2)N2C(=O)[C@@H](NC(=O)OCc3cc(C)on3)[C@H]2SC1,3.04
10,COC(=O)C1CCN(c2ccc([N+](=O)[O-])cc2[N+](=O)[O-])CC1,1.53
11,CCC1CCCCN1C(=S)NC(=O)c1cc(Br)ccc1Cl (stereo not drawn),8.27
12,CC(=C/c1ccccc1)/C=N/n1cnnc1,11
13,CC1(C)NC(=O)N(CCCCOc2ccc(Br)cc2Cl)C1=O,4.97
14,CC1CCN(C(=O)COC(=O)CCc2c[nH]c3ccccc23)CC1,13.7
15,Cc1ccc(S(=O)(=O)NCC(=O)N2CCN(c3ccccn3)CC2)cc1,-3.7
16,CC(C)c1ccc(CCNC(=O)c2ccc([N+](=O)[O-])cc2)cc1,13.6
17,O=C(Cn1nnc2ccccc21)OCC(=O)c1ccc(Cl)c(Cl)c1,6.13
18,Cc1cc(Cl)ccc1OCC(=O)NNC(=O)C1CCCO1 (stereo not drawn),9.37
19,CN(C(=O)COC(=O)c1ccc(C(C)(C)C)cc1)C1CCS(=O)(=O)C1 (stereo not drawn),6.14
20,CC(NC(=O)Cc1cccs1)c1ccc2c(c1)OCO2 (stereo not drawn),-4.41
21,Cc1cccc(C)c1N(CC(=O)N1CCN(c2ccccc2F)CC1)S(C)(=O)=O,10.4
22,CCOc1ccc(N/C(=N/c2nc(C)cc(C)n2)NC(C)=O)cc1,13.2

row,SMILES,"hERG current change (%, negative = inhibition) at 1uM [%]"
1,O=C(CCOc1ccccc1)Nc1ccnn1C1CCN(CCc2ccccc2)CC1,-51.4
2,CC1CCN(CCCNC(=O)C2CCN(S(=O)(=O)N3CCCCC3)CC2)CC1,11.9
3,CCOC(=O)c1c(N)c2cc([N+](=O)[O-])ccc2n1C,12.7
4,CN(CC(=O)Nc1cccc(F)c1)C(=O)Cn1cnc2c1c(=O)n(C)c(=O)n2C,3.18
5,Cc1ccc(S(=O)(=O)Nc2cccc(-c3ccc4nnc(C)n4n3)c2)s1,2.22
6,Cl.c1ccc(COc2ccc(CNCc3cccnc3)cc2)cc1,5.65
7,COc1ccc(/C=C2\Oc3cc(OCC(=O)N4CCC[C@H]4C(=O)O)ccc3C2=O)cc1OC,-0.209
8,O=C(C1CC1)N1N=C(c2ccc(Cl)cc2)CC1(O)C(F)(F)F (stereo not drawn),8.91
9,COc1cccc(C(=O)C2CCCN(C(=O)CCc3scnc3C)C2)c1 (stereo not drawn),-4.28
10,O=C(NCc1ccco1)Nc1cccs1,6.5
11,Cc1ccc(N=Cc2c(O)c3ccccc3oc2=O)cc1F,14
12,COc1cc([N+](=O)[O-])ccc1-c1ccc(C(=O)Nc2ccc(NC(C)=O)cc2)o1,1.74
13,COc1ccc(S(=O)(=O)NCc2ccccn2)c(C)c1C,4.55
14,CCN(CC)S(=O)(=O)c1ccc2c(c1)c(=O)c(C(=O)NCCc1ccccc1)cn2C,7.68
15,O=C(OCC(=O)N1CCc2ccccc21)c1c2c(nc3ccccc13)CCCCC2,1.44
16,CCOC(=O)C1=C(C)NC2=C(C(=O)C(C(=O)OCC)C(c3ccccc3OC)C2)C1c1ccccn1 (stereo not drawn),9.78
17,CCOC(=O)c1[nH]c(C)c(C(=O)NCc2ccco2)c1C,0.814
18,COc1ccccc1N1CCN(C(=O)c2ccc3c(=O)n4c(nc3c2)CCCCC4)CC1.Cl,10.4
19,Cc1cccc2cc(C#N)c(NCc3ccccc3)nc12,17.8
20,Nc1nnc(SCC(=O)Nc2cccc(S(=O)(=O)N3CCCCC3)c2)s1,2.77
21,COc1ccc(Cl)c2sc(N3CCN(C(C)=O)CC3)nc12,-2.04
22,O=C(O)CCc1ccc(-c2ccc(Br)cc2)n1-c1cccc(O)c1,20.8

row,SMILES,"hERG current change (%, negative = inhibition) at 1uM [%]"
1,CCOC(=O)N1CCC(NC(=O)c2cc3c(=O)n(C)c4ccccc4c3n2C)CC1,9.62
2,Cc1nn(-c2ccccc2)c(Cl)c1/C=N/Nc1nc2ccccc2n1C,12.6
3,Cc1cc(C)n(Cc2cccc(F)c2)c(=O)c1C#N,3.71
4,Cc1ccccc1/C(N)=N/OC(=O)N1c2ccccc2Sc2ccccc21,18
5,COc1ccc(NC(=O)CSc2nc(SC)ns2)cc1,11.5
6,O=S(=O)(c1ccccc1)N1CCN(C(=S)NCc2ccccc2)CC1,2.81
7,CCOc1ccc(S(=O)(=O)N2CCCC(C(=O)Nc3cccc(C)c3)C2)cc1 (stereo not drawn),15.1
8,CCOC(=O)N1CCN(Cc2nc3c(c(=O)[nH]c(=O)n3C)n2Cc2ccccc2C)CC1,-8
9,COc1cccc(/C=C2\SC(=S)N(CCCC(=O)Nc3ccc(C(=O)O)cc3)C2=O)c1,16
10,CC1CC(C)CN(C(=O)C(C)N(C)CC(=O)Nc2ccccc2Cl)C1 (stereo not drawn),6.48
11,CCC(C)c1ccc(S(=O)(=O)N2CCN(C(=O)COc3ccc4c(C)cc(=O)oc4c3)CC2)cc1 (stereo not drawn),8.37
12,O=C(NC1CCN(C(=O)c2cccs2)CC1)c1ccccc1,3.07
13,CCOC(=O)CSC1=N/C(=C\c2cccnc2)C(=O)N1c1ccc(OC)cc1,0.577
14,COc1ccc(S(=O)(=O)NC(C)C(=O)Nc2ccccc2F)cc1 (stereo not drawn),7.22
15,N#Cc1cc2c(nc1SCc1cccnc1)CCC2,-4.71
16,OC1(c2ccccc2F)CCN(Cc2nnnn2CCc2ccccc2)CC1,18.8
17,CCOC(=O)c1c(C)nc2c(c(SC)nn2-c2ccccc2)c1N,16.6
18,Clc1ccc(-n2nnc(-c3ncc[nH]3)n2)cc1Cl,4.89
19,O=C(c1noc2c1CCc1ccccc1-2)N1CCOCC1,8.91
20,COc1ccc(Cl)cc1NS(=O)(=O)c1cccc2cccnc12,19.4
21,NS(=O)(=O)c1ccc(NC(=O)c2ccc(COc3ccccc3)o2)cc1,14.8
22,COc1ccc2[nH]c(=O)c(CN(Cc3ccccc3)C(=S)NCC3CCCO3)cc2c1 (stereo not drawn),9.55

row,SMILES,"hERG current change (%, negative = inhibition) at 1uM [%]"
1,CCC(=O)c1ccc(OCC(O)Cn2nc(C)cc2C)cc1 (stereo not drawn),7.89
2,CCC(C)C1NC(=S)N(C2CCCCC2)C1=O (stereo not drawn),3.28
3,O=[N+]([O-])c1cc(/C=N/O)ccc1SCc1ccccc1,6.61
4,Nc1nc(COC(=O)CCC(=O)c2ccc(Cl)cc2)nc(Nc2ccccc2)n1,4.9
5,Cc1ccccc1C(=O)NC(=S)N(C)C1CCCCC1,-4.55
6,Cc1ccc(CNC(=O)CSc2nnc3c(n2)[nH]c2ccc(F)cc23)cc1,15.3
7,CCOc1ccc(OCCC(=O)OCC(=O)N2CCN(S(=O)(=O)c3ccc(Cl)cc3)CC2)cc1,-1.84
8,COc1ccccc1C(=O)Nc1cccc(C(=O)c2ccccc2)c1,4.61
9,Cc1sc2ncnc(SCC(=O)N3CCCC3=O)c2c1C,9.56
10,O=C(OCc1ccc(Br)cc1F)c1cc2ccccc2oc1=O,9.64
11,COc1ccc(C(=O)CC2(C(=O)O)CCCCC2)cc1,9.93
12,CCOCCCNc1ncc2c(n1)CC(c1ccc(C)cc1)CC2=O (stereo not drawn),12.2
13,COc1cc(-n2c(=O)c3ccccc3n(CC(=O)c3ccc(F)cc3)c2=O)cc(OC)c1OC,18.3
14,CCOC(=O)C1=C(C)n2c(s/c(=C/c3cccc([N+](=O)[O-])c3)c2=O)=NC1c1ccc(O)c(OC)c1 (stereo not drawn),-4.93
15,COc1cc(-c2noc(CCCC(=O)NCc3ccccc3)n2)cc(OC)c1OC,9.02
16,CCc1ccc(N(CC(=O)Nc2ccccc2C(=O)N2CCCC2)S(C)(=O)=O)cc1,2.3
17,COc1ccc2cc(OCC(=O)NNC(=O)Nc3ccc(F)cc3)ccc2c1,13.1
18,Oc1c(C(c2ccccc2)N2CCc3ccccc3C2)sc2ncnn12 (stereo not drawn),14.3
19,COCCNC(=O)c1cccc(OC2CCN(Cc3ccccc3C)CC2)c1,10.3
20,Cc1cc(C)n2nc(SCC(=O)N3CCN(c4ccc(F)cc4)CC3)nc2n1,5.53
21,O=C(NCCCN1CCN(c2ccccc2F)CC1)Nc1ccccc1[N+](=O)[O-],-51.1
